# Whole data set: some 33,000 sequences, median “E-score (-0.5 to 0.5)” near -0.012, cut for the highest 2% near 0.27. This is one part of the list.
# Molecular target: T1, Vhr1 (UniProt P40522)
# T1 sequence: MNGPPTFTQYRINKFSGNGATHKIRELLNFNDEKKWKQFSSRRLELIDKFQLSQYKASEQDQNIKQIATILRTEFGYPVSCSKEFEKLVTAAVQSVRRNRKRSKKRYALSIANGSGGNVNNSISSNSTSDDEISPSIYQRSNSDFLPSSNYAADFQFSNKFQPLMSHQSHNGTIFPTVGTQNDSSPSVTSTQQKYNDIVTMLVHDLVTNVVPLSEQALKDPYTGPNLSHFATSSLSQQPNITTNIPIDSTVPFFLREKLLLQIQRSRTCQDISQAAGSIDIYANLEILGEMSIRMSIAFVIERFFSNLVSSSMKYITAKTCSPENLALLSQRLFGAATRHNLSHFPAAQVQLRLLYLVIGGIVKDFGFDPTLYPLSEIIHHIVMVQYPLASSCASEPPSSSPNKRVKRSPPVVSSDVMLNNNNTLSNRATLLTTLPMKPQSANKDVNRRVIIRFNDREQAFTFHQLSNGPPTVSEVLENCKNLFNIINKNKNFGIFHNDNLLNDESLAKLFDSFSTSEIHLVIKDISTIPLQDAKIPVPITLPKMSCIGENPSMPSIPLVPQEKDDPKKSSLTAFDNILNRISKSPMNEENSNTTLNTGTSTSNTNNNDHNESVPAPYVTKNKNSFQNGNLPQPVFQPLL
# Assay: PBM E-score (8-mer binding enrichment) (E-score (-0.5 to 0.5)); higher = stronger / more preferred TF binding; most listed sequences are background and not binding sites
# Conditions: protein concentration: 200 nM; construct: GST-full length
# How it was run: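 PURExpress in vitro transcription/translation supplied GST-tagged yeast transcription factors, either full-length or DNA-binding domain. Applied at about 100-200 nM to universal all-10-mer Agilent arrays double-stranded by primer extension, the bound protein was detected with fluorescent anti-GST. E-scores, modified Wilcoxon-Mann-Whitney statistics, were given by the Universal PBM Analysis Suite to ungapped eight-base words pooled with their reverse complements after masliner normalisation.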
row,Sequence,PBM E-score
1,ATGGATGA,0.203
2,ACCTAGTC,0.0861
3,AGGGCTAT,-0.308
4,TCACATCA,0.158
5,CCTCATGA,0.0599
6,GACCACCC,-0.0289
7,TACACGAA,0.171
8,ATCCGTTG,0.138
9,AACGTATG,-0.067
10,ACCACCCG,-0.0147
11,CGGGAGAA,0.0467
12,AGGAGTTA,-0.0467
13,TACGGGAA,-0.209
14,CAAGAGGG,-0.222
15,AAATTACG,-0.102
16,ACGAACTG,-0.0868
17,AGGGATGC,-0.319
18,ACTATGAC,0.286
19,ATTTGTCG,0.0724
20,CCTATCCA,-0.0395
21,CCGGAGCC,0.137
22,ATACGATA,0.136

row,Sequence,PBM E-score
1,GCCTGGCC,-0.13
2,ACCTTGAA,-0.103
3,GACTATGC,0.233
4,AAGCCTTG,-0.11
5,ACGTAAGT,-0.132
6,CTCCGACA,0.0494
7,ACTCTTGG,0.0846
8,AGGCTCTA,-0.332
9,CCCATCGG,0.0695
10,TCAAGAGA,-0.256
11,ATCGCTCC,-0.234
12,AGTCATCC,0.464
13,CATAAGGA,-0.0229
14,GCGCGTAC,0.0989
15,CAGCCCGG,0.0685
16,ATAGGGTG,0.0417
17,GTTGGATA,-0.0148
18,TCATATCA,0.104
19,CCATCCAC,0.185
20,AACTGATC,0.157
21,CCGCAACG,0.0883
22,ATTATCAA,0.193

row,Sequence,PBM E-score
1,ACTAATCA,0.18
2,CAATTTCG,-0.102
3,CAGGATCG,-0.0146
4,AAAGAGAG,-0.309
5,CCCGGAAA,-0.0328
6,ACTAGCGC,0.0141
7,ACTGGCGA,0.124
8,ACGACATC,-0.0989
9,CACTACCC,0.106
10,AATGGAAG,-0.0985
11,CTGCCGAA,-0.243
12,ACACCGAG,0.143
13,CCTGGAAG,-0.197
14,ACCTGCCA,-0.0896
15,GGCTGCAA,0.0564
16,ATCCCAGA,-0.258
17,CCACAGAG,0.0729
18,CCAAAACA,-0.0108
19,TCTATGAA,-0.117
20,ACATTCCA,-0.0573
21,TGCTTCAA,-0.245
22,AGGCCGCC,-0.138

row,Sequence,PBM E-score
1,ACCGGCCA,-0.0884
2,GAGATCCC,0.0278
3,AATGGATC,-0.0227
4,GAGATAAA,-0.0981
5,ACCTCAGA,-0.108
6,AGGCAGTG,0.0426
7,ACCTCTCG,-0.0212
8,ATGTAGCG,-0.0682
9,ATAGAGGA,-0.238
10,CGCGAGAG,-0.135
11,ACGGAAAA,-0.222
12,AACCGGAC,0.00415
13,ATGGTCAC,0.103
14,AGTCACAT,0.402
15,TGTGGTAA,0.00846
16,CTCACAAC,0.0847
17,TAATCGGA,-0.00772
18,ATCCTCGA,0.0391
19,CGTTAAGA,-0.223
20,CTAACTAG,0.0331
21,GCGTCGAA,0.204
22,CCTGCGAA,0.0952

row,Sequence,PBM E-score
1,CAGCAGAA,0.132
2,CCCATCCC,0.0993
3,CGCATGAA,0.142
4,AGAAGAAC,-0.0515
5,AATGTATC,0.153
6,CACACACA,0.276
7,AGGCACAT,0.0884
8,CTACACGA,0.169
9,AAACATCC,0.0341
10,ATGGCAAA,-0.176
11,AACATGAG,0.182
12,ACAACCAG,0.066
13,ATGTACCC,0.0694
14,CAAGTGAG,-0.121
15,AATAGAGT,-0.168
16,CAATGTAA,0.0481
17,TAAAACGA,-0.196
18,TCCCGTCA,-0.168
19,CTCCACAG,-0.118
20,AATGTCTG,-0.114
21,AATCGAGG,0.0694
